Experiments:
BT-483 = assay: Flow cytometry antibody binding (MCF), BT-483; conditions: 10 μg/ml antibody; BT-483, Breast
Protocol: Binding of humanized anti-EFNA4 antibodies huE22 and huE47 was assessed on EFNA4 expressing cells by flow cytometry. Adherent cells were dissociated using TrpLE Express (GIBCO cat #12604-021), neutralized with cell culture media and counted. Cells were plated into a U-bottom 96-well plate (BD Falcon cat #353077) with 5×10e5 cells/100 μL media/well. The plate was centrifuged at 300×g, 5 minutes, 4° C. to pellet cells and the supernatant was discarded. All reagents were kept on ice for the following steps. Each pellet was resuspended in 100 μL primary humanized anti-EFNA4 antibody (huE22 or huE47) or negative control antibody at 10 μg/mL in 3% BSA in PBS. The plate was incubated on ice for 30 minutes. The plate was centrifuged and the cell pellets were washed in 200 μL 3% BSA in PBS. Each cell pellet was resuspended in 100 μL of R-phycoerythrin (PE)-conjugated goat anti-human IgG Fc fragment (Jackson ImmunoResearch cat #109-115-098) that had been diluted 1:50 in 3% BSA in PBS. The plate was incubated on ice for 30 minutes. […] The samples were analyzed by flow cytometry using 5 μL 7AAD (B-D Pharmingen cat #51-68981E) per sample as a viability stain.
Endogenous EFNA4 expressing cancer cell lines were analyzed: Breast cell lines BT-483, HCC202 and MX-1, Chronic Lymphocytic Leukemia (CLL) cell line MEC1 and mantle cell lymphoma (MCL) cell line Z138.

rat EFNA4 = target: T1, rat EFNA4 (Rattus norvegicus, UniProt D3ZEN1); assay: SPR (BIAcore 2000) binding, rat EFNA4; conditions: 400 nM antigen
T1 sequence (D3ZEN1 1-204): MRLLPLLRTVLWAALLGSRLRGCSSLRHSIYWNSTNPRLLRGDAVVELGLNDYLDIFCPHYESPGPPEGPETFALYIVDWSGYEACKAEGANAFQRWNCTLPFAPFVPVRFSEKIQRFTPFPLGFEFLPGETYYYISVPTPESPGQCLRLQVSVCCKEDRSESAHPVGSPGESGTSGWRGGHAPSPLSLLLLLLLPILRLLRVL
Protocol: The binding constants of huE22 for human and cynomolgus monkey EFNA4 proteins were determined by surface plasmon resonance (SPR) using BIAcore 2000 (GE Healthcare) using recombinant EFNA4 extracellular domain that was fused to a histidine tag to facilitate purification. The results indicated high affinity of huE22 for both human and cynomolgus monkey EFNA4, see Table 12. The cynomolgus monkey EFNA4 protein sequence is highly homologous to human EFNA4 protein sequence, with 98% identity overall and 98% identity in the extracellular domain. […] The lack of huE22 binding to rat or mouse EFNA4 is likely explained by a non-conserved residue in the rat and mouse EFNA4 sequences within the defined huE22 epitope.

HEK293T parental cells = assay: Cell binding of huE22 and huE22-AcBut-CM ADC, HEK293T parental; parameters: species or system human
HEK293T-EFNA4 cells [1] = assay: Cell binding of huE22 and huE22-AcBut-CM ADC, HEK293T-EFNA4; parameters: species or system human
HEK293T-EFNA4 cells [2] = assay: Apoptosis by Annexin V / 7AAD staining, HEK293T-EFNA4; format: cell-based, human; conditions: for induction of apoptosis (Annexin V): HEK293T-EFNA4; for % early apoptosis / % late apoptosis / % total apoptosis: Annexin V / 7AAD
Excerpt: (§1) Calicheamicin-generated DNA damage induces apoptosis, which ultimately leads to cell death (Zein et al, 1988; Nicolaou et al, 1994; Prokop et al, 2003).

parental HEK293T cells = assay: Apoptosis by Annexin V / 7AAD staining, parental HEK293T; format: cell-based, human; conditions: for % late apoptosis / % early apoptosis / % total apoptosis: HEK293T Parental, Annexin V / 7AAD
Excerpt: as §1

[3] = test system: Breast-13 (BR13) TNBC PDX; assay: In vivo efficacy, BR13 TNBC PDX; parameters: species or system NOD/SCID mice (human tumor PDX)

B1: huE22 (antibody)
heavy: QVQLVQSGAEVKKPGASVKVSCKASGYTFTGYYIHWVRQAPGQGLEWMGWIYPGNFNTKYNERFKGRVTMTTDTSTSTAYMELRSLRSDDTAVYYCAREDGSPYYAMDYWGQGTSVTVSS[human IgG1 constant region omitted here]
VL: DIVMTQTPLSLSVTPGQPASISCRSSQSLVHSNGNTFLYWYLQKPGQSPQLLIYRVSNRFSGVPDRFSGSGSGTDFTLKISRVEAEDVGVYYCFQATHVPWTFGGGTKVEIK
Mean Channel Fluorescent (MCF) (BT-483): 17.7
binding to rat antigen (rat EFNA4): no huE22 binding to rat antigen was detected
binding to rat antigen (rat EFNA4; listed as huE22 mAb): No binding detected at
Cell binding (HEK293T parental cells; 0.3 μg/mL): 8.3
Cell binding (HEK293T parental cells; 1.0 μg/mL): 6.8
Cell binding (HEK293T parental cells; 3.0 μg/mL): 6.1
Cell binding (HEK293T parental cells; 10.0 μg/mL): 14.5
Cell binding (HEK293T-EFNA4 cells [1]; 0.3 μg/mL): 446
Cell binding (HEK293T-EFNA4 cells [1]; 1.0 μg/mL): 606
Cell binding (HEK293T-EFNA4 cells [1]; 3.0 μg/mL): 739
Cell binding (HEK293T-EFNA4 cells [1]; 10.0 μg/mL): 856
induction of apoptosis (Annexin V) (HEK293T-EFNA4 cells [2]): Neither the control ADC nor huE22 mAb induced apoptosis to a significant degree
% early apoptosis (HEK293T-EFNA4 cells [2]; HEK293T-EFNA4, 1 ng/mL): 4.7%
% late apoptosis (HEK293T-EFNA4 cells [2]; HEK293T-EFNA4, 1 ng/mL): 3.1%
% total apoptosis (HEK293T-EFNA4 cells [2]; HEK293T-EFNA4, 1 ng/mL): 7.8%
% early apoptosis (HEK293T-EFNA4 cells [2]; HEK293T-EFNA4, 100 ng/mL): 6.4%
% total apoptosis (HEK293T-EFNA4 cells [2]; HEK293T-EFNA4, 100 ng/mL): 8.5%
% early apoptosis (HEK293T-EFNA4 cells [2]; HEK293T-EFNA4, 1000 ng/mL): 8.3%
% total apoptosis (HEK293T-EFNA4 cells [2]; HEK293T-EFNA4, 1000 ng/mL): 10.6%
% late apoptosis (parental HEK293T cells; 1 ng/mL): 1.3%
% early apoptosis (parental HEK293T cells; 100 ng/mL): 2.8%
% late apoptosis (parental HEK293T cells; 100 ng/mL): 1.1%
% total apoptosis (parental HEK293T cells; 100 ng/mL): 3.9%
% early apoptosis (parental HEK293T cells; 1000 ng/mL): 1.8%
% late apoptosis (parental HEK293T cells; 1000 ng/mL): 0.8%
% total apoptosis (parental HEK293T cells; 1000 ng/mL): 2.6%

B2: huE22-AcBut-CM: huE22 conjugated via lysine residues to AcBut-N-acetyl-γ-calicheamicin dimethyl hydrazide (AcBut-CM) (conjugate)
heavy: B1 heavy
light: DIVMTQTPLSLSVTPGQPASISCRSSQSLVHSNGNTFLYWYLQKPGQSPQLLIYRVSNRFSGVPDRFSGSGSGTDFTLKISRVEAEDVGVYYCFQATHVPWTFGGGTKVEIKRTVAAPSVFIFPPSDEQLKSGTASVVCLLNNFYPREAKVQWKVDNALQSGNSQESVTEQDSKDSTYSLSSTLTLSKADYEKHKVYACEVTHQGLSSPVTKSFNRGEC
binding to rat antigen (rat EFNA4): No binding detected at
Cell binding (HEK293T parental cells; 0.3 μg/mL): 6.8
Cell binding (HEK293T parental cells; 1.0 μg/mL): 6.1
Cell binding (HEK293T parental cells; 3.0 μg/mL): 8.2
Cell binding (HEK293T parental cells; 10.0 μg/mL): 13.4
Cell binding (HEK293T-EFNA4 cells [1]; 0.3 μg/mL): 446
Cell binding (HEK293T-EFNA4 cells [1]; 1.0 μg/mL): 621
Cell binding (HEK293T-EFNA4 cells [1]; 3.0 μg/mL): 728
Cell binding (HEK293T-EFNA4 cells [1]; 10.0 μg/mL): 863
Regression (TTP, Days) or % TGI ([3]; 0.018 mg/kg, BR13): No activity
tumor growth delay ([3]; 0.09 mg/kg): ~40 days
tumor volume ± SEM ([3]; 0.09 mg/kg, Day 22): 112 ± 20 mm^3
tumor volume ± SEM ([3]; 0.09 mg/kg, Day 36): 116 ± 32 mm^3
Regression (TTP, Days) ([3]; 0.09 mg/kg, BR13): Regression (42) Days
tumor volume ± SEM ([3]; 0.09 mg/kg, Day 0): 156 ± 10 mm^3
tumor volume ± SEM ([3]; 0.09 mg/kg, Day 7): 145 ± 14 mm^3
tumor volume ± SEM ([3]; 0.09 mg/kg, Day 14): 156 ± 21 mm^3
tumor volume ± SEM ([3]; 0.09 mg/kg, Day 28): 98 ± 23 mm^3
tumor volume ± SEM ([3]; 0.09 mg/kg, Day 42): 138 ± 34 mm^3
tumor volume ± SEM ([3]; 0.09 mg/kg, Day 49): 188 ± 46 mm^3
tumor volume ± SEM ([3]; 0.09 mg/kg, Day 56): 274 ± 75 mm^3
tumor volume ± SEM ([3]; 0.09 mg/kg, Day 63): 328 ± 86 mm^3
tumor volume ± SEM ([3]; 0.09 mg/kg, Day 70): 425 ± 93 mm^3
tumor volume ± SEM ([3]; 0.09 mg/kg, Day 77): 531 ± 116 mm^3
tumor volume ± SEM ([3]; 0.09 mg/kg, Day 84): 667 ± 133 mm^3
tumor volume ± SEM ([3]; 0.09 mg/kg, Day 91): 830 ± 146 mm^3
tumor volume ± SEM ([3]; 0.27 mg/kg, Day 22): 35 ± 5 mm^3
tumor volume ± SEM ([3]; 0.27 mg/kg, Day 144): 573 ± 144 mm^3
tumor volume ± SEM ([3]; 0.27 mg/kg, Day 150): 709 ± 248 mm^3
Regression (TTP, Days) ([3]; 0.27 mg/kg, BR13): Regression (84) Days
tumor volume ± SEM ([3]; 0.27 mg/kg, Day 0): 155 ± 14 mm^3
tumor volume ± SEM ([3]; 0.27 mg/kg, Day 7): 144 ± 15 mm^3
tumor volume ± SEM ([3]; 0.27 mg/kg, Day 14): 91 ± 14 mm^3
tumor volume ± SEM ([3]; 0.27 mg/kg, Day 28): 17 ± 4 mm^3
tumor volume ± SEM ([3]; 0.27 mg/kg, Day 56): 6 ± 2 mm^3
tumor volume ± SEM ([3]; 0.27 mg/kg, Day 63): 7 ± 3 mm^3
tumor volume ± SEM ([3]; 0.27 mg/kg, Day 70): 13 ± 4 mm^3
tumor volume ± SEM ([3]; 0.27 mg/kg, Day 77): 13 ± 7 mm^3
tumor volume ± SEM ([3]; 0.27 mg/kg, Day 84): 30 ± 13 mm^3
tumor volume ± SEM ([3]; 0.27 mg/kg, Day 91): 40 ± 15 mm^3
tumor volume ± SEM ([3]; 0.27 mg/kg, Day 98): 79 ± 33 mm^3
tumor volume ± SEM ([3]; 0.27 mg/kg, Day 105): 99 ± 36 mm^3
tumor volume ± SEM ([3]; 0.27 mg/kg, Day 112): 147 ± 53 mm^3
tumor volume ± SEM ([3]; 0.27 mg/kg, Day 119): 198 ± 65 mm^3
tumor volume ± SEM ([3]; 0.27 mg/kg, Day 126): 290 ± 97 mm^3
tumor volume ± SEM ([3]; 0.27 mg/kg, Day 133): 332 ± 113 mm^3
tumor volume ± SEM ([3]; 0.27 mg/kg, Day 140): 522 ± 156 mm^3
induction of apoptosis (Annexin V) (HEK293T-EFNA4 cells [2]): substantially higher levels of apoptotic cells
% early apoptosis (HEK293T-EFNA4 cells [2]; HEK293T-EFNA4, 1 ng/mL): 22.4%
% late apoptosis (HEK293T-EFNA4 cells [2]; HEK293T-EFNA4, 1 ng/mL): 7.8%
% total apoptosis (HEK293T-EFNA4 cells [2]; HEK293T-EFNA4, 1 ng/mL): 30.2%
% early apoptosis (HEK293T-EFNA4 cells [2]; HEK293T-EFNA4, 100 ng/mL): 19.0%
% late apoptosis (HEK293T-EFNA4 cells [2]; HEK293T-EFNA4, 100 ng/mL): 10.2%
% total apoptosis (HEK293T-EFNA4 cells [2]; HEK293T-EFNA4, 100 ng/mL): 29.2%
% early apoptosis (HEK293T-EFNA4 cells [2]; HEK293T-EFNA4, 1000 ng/mL): 17.9%
% late apoptosis (HEK293T-EFNA4 cells [2]; HEK293T-EFNA4, 1000 ng/mL): 8.6%
% total apoptosis (HEK293T-EFNA4 cells [2]; HEK293T-EFNA4, 1000 ng/mL): 26.5%
% early apoptosis (parental HEK293T cells; 1 ng/mL): 6.0%
% late apoptosis (parental HEK293T cells; 1 ng/mL): 1.6%
% total apoptosis (parental HEK293T cells; 1 ng/mL): 7.6%
% late apoptosis (parental HEK293T cells; 100 ng/mL): 1.6%
% total apoptosis (parental HEK293T cells; 100 ng/mL): 5.6%
% early apoptosis (parental HEK293T cells; 1000 ng/mL): 6.0%
% late apoptosis (parental HEK293T cells; 1000 ng/mL): 3.4%
% total apoptosis (parental HEK293T cells; 1000 ng/mL): 9.4%
induction of apoptosis (Annexin V) (parental HEK293T cells; parental HEK293T): treatment of parental HEK293T cells did not
